From PubChem BioAssay AID651567 (National Center for Advancing Translational Sciences (NCATS), 2012)
Hit rate of the full screen: of about 1,200 compounds, about 10 (0.8%) were called active. The inconclusive results got no clear call from the source; some entries with a clear call stand among them for comparison. Calls come from the whole dose curve; as a rule, active = well fitted inhibition curve with a large enough effect; inconclusive = small, poorly fitted or top-dose-only effect; inactive = no such curve, though single readings can be large or run the other way. A potency beside an inconclusive call is a rough fit, not a confirmed value.

Test: qHTS Assay to Find Inhibitors of Chronic Active B-Cell Receptor Signaling: Hit Validation in OCI-Ly3 Assay
Conditions: OCI-Ly3 IkB-luciferase reporter, Chroma-Glo luminescence, 4 h; series mostly up to 46.1 µM; activity change, negative = inhibition: at the top concentration
Description: Diffuse large B-cell lymphoma (DLBCL) is the most common category of non-Hodgkin lymphoma, with ~20,000 new cases per year in the United States. DLBCL should be regarded as a collection of different neoplasms. Microarray gene expression analysis has defined two principal types of DLBCL, named for their similarity to normal B cell stages or activation states: a germinal center B-cell (GCB) type, and an activated B-cell (ABC) type. In ABC-DLBCL, a constitutive high-level activity of the NF-kappaB family of transcription factors has been observed (1) and NF-kappaB target genes are more highly expressed in ABC primary tumors than in GCB tumors. Functional studies have shown a constitutive high-level activity of the IkappaB (inhibitor of kappa-B) kinase (IKK) complex. […] Further analysis of DLBCL primary tumors for NF-kappaB target gene expression imply that although CARD11 is required for constitutive IKK activity in all ABC-DLBCL lines, mutations in CARD11 may be the root cause of IKK activation only in lines or tumors with such mutations. In other words, CARD11 mutations may explain NF-kappaB activation in only 10% of ABC-DLBCL cases. […] This process has been termed 'chronic active BCR signaling' (CABS). The goal of this screen is to find small-molecule inhibitors of the CABS pathway found in ABC-DLBCL lines using a cell-based assay that measures IkappaBalpa stability, which has already been extensively validated in the OCI-Ly3 line (PubChem AID:445; REF: 4). […] Hits from the primary screen were tested in this selectivity secondary assay. NIH Molecular Libraries Probe Production Network [MLPCN] NIH Chemical Genomics Center [NCGC] MLPCN Grant: R03 DA031086 PI Name: Dr. R. Eric Davis
Cells were seeded in 1536-well plates at 5000 cells/3ul in IMDM medium containing 0.5% FBS, w/o phenol red, L-glutamine, 25 mM HEPES, 3 mg/ml sodium bicarbonate. After centrifugation for 1 min. at 1000 rpm, 23 nl of compounds or DMSO were delivered to each well using a pin tool. Then 1ul 80ng/ml doxycycline was dispensed into white solid 1536-well plates and the plates were incubated at 37C/5% C02 in a cell incubator for 4 hrs. Then 4 ul Chroma-Glo luminescent substrate mix (Promega) was added to each well. The plate was incubated at R.T. for 10-15 min. The plates were measured on a ViewLux plate reader for green luminescence (540/20 nm filter) and red luminescence (618/8 nm filter). The green and red luminescent signals were corrected for red and green luminescence filter overlap using previously determined filter calibration constants (determined using the procedure outlined in the Promega Technical Manual). The %Activity was determined from the ratio of corrected green/red luminescent values. Green luminescent and ratio %Activity was determined by normalizing to the difference in signal between basal cells (0% Activity) and cells incubated with 10 uM of the proteasome inhibitor MG-132 (100% Activity). Red luminescent %Activity was normalized to the difference between red luminesence in basal cells (0%Activity) and zero luminescence (-100% Activity). Concentration-response curves were fitted to the signals arising from the green luminescence (I-kappa-B-alpha-luciferase fusion; IkB-luc) and the red luminescence (unfused luciferase; luc) as well as the calculated ratio. The concentration-effect curves were then classified based on curve quality (r2), response magnitude and degree of measured activity. Compounds were then categorized based on their concentration-response curves for all three datasets (Ikb-luc, luc and ratio).
% is set by controls: 0 for no effect and ±100 for the full control effect; potency is the fitted concentration of half-maximal effect; tags give direction and shape of the fitted curve.

Structure (SMILES) | Potency | activity change, negative = inhibition
COc1ccc(/C=C/C(=O)c2ccc(C(=O)/C=C/c3ccc(OC)c(OC)c3)cc2)cc1OC | inconclusive: 14.6 µM [inhibitor, partial curve] | 
COc1ccc(C(=O)/C=C/c2ccc(OC)c(Cn3nnc4ccccc43)c2)cc1 | active: 16.4 µM | 
CCc1ccc(CCC(=O)Nc2sc3c(c2C#N)CCCC3)o1 |  | inactive: -1.9%
O=[N+]([O-])c1ccc(Sc2nc3ccccc3o2)c([N+](=O)[O-])c1 | inconclusive: 6.51 µM [inhibitor, single point] | 
O=C(/C=C/c1ccc(O)cc1)c1ccc(O)cc1O | active: 16.4 µM | 
CCOc1cc(NC(=O)CCl)c(OCC)cc1NC(=O)CCl | inconclusive: 6.51 µM [inhibitor, single point] | 
CCOc1c(Br)cc(CNc2ccc3c(c2)OCCO3)cc1OC |  | inactive: -4.18%
CC1=NN(C(N)=S)C(=O)C1N=Nc1cccc([N+](=O)[O-])c1 (configuration not stated) | inconclusive: 20.6 µM [inhibitor, partial curve] | 
COc1ccc(CCNc2oc(-c3ccc(OC)c(OC)c3)nc2P(=O)(OC)OC)cc1OC |  | inactive: 0.113%
Cc1ccc(C(=O)Sc2cccccc2=O)cc1 | inconclusive: 6.51 µM [inhibitor, single point] | 
O=C(Nc1nnc(SCc2ccc(F)cc2)s1)c1ccccn1 | inconclusive: 25.9 µM [inhibitor, single point] | 
Oc1ccc(-c2nnc(Nc3cccc(O)c3)c3ccccc23)cc1 |  | inactive: -1.7%
Cn1c(O)c(N=NC(=S)Nc2ccccc2F)c2cc(S(=O)(=O)N3CCOCC3)ccc21 | active: 3.66 µM | 
COc1cc(/C=C/c2ccc3cccc(O)c3n2)c(Br)cc1O |  | inactive: 31%
CCOc1ccc(OCc2ccc(C(=O)N/N=C(\C)c3ccccn3)cc2)cc1 | inconclusive: 6.51 µM [inhibitor, single point] | 
O=c1c2cc(F)ccc2sn1-c1ccccc1 | inconclusive: 14.6 µM [inhibitor, partial curve] | 
CC(C)c1ccc(/C=N/NC(=O)c2ccccc2Cl)cc1 | inconclusive: 20.6 µM [inhibitor, single point] | 
COc1ccccc1-c1nnc2n1N=C(c1ccc(O)c(O)c1)CS2 | inconclusive: 6.51 µM [inhibitor, single point] | 
Oc1[nH]c2ccccc2c1N=NC(=S)N1CCOCC1 | inconclusive: 6.51 µM [inhibitor, single point] | 
Cc1cccc(NC(=S)N=Nc2c(O)n(C)c3ccc(S(=O)(=O)N4CCOCC4)cc23)c1 | inconclusive: 6.51 µM [inhibitor, single point] | 
CCOC(=O)C1=C(C2=CCCCC2)c2ccc(OC)cc2N(S(=O)(=O)C(F)(F)F)C1C(=O)OCC (configuration not stated) | inconclusive: 18.4 µM [inhibitor, single point] | 
COc1cc(S(=O)(=O)N2CCCCC2)ccc1NC(=O)/C=C/c1ccccc1 |  | inactive: -1.13%
O=c1cc(CSc2ccc(Cl)cc2)nc(-c2ccccn2)[nH]1 | inconclusive: 25.9 µM [inhibitor, single point] | 
Cc1ccc(C)c(NC(=S)N=Nc2c(O)n(C)c3ccc(S(=O)(=O)N4CCOCC4)cc23)c1 | inconclusive: 6.51 µM [inhibitor, single point] | 

Structure (SMILES) | Potency | activity change, negative = inhibition
COc1cc(Cc2nccc3cc(OC)c(OC)cc23)c(NC(C)=O)cc1OC |  | inactive: -0.252%
COc1ccc(-c2cc(C(F)(F)F)n3nc(C(=O)NCCCn4ccnc4)cc3n2)cc1 |  | inactive: -0.239%
COC(=O)C1C(O)=C(C=Nc2ccccc2)C(=O)CC1(C)C (configuration not stated) |  | inactive: 0.611%
COc1cccc(-c2nnc(Nc3nc4c(F)cccc4s3)o2)c1 |  | inactive: 37.5%
COc1ccc(C2=Nn3c(nnc3-c3ccccc3OC)SC2)cc1OC |  | inactive: -2.26%
S=c1nc2ccccc2c2nc(-c3ccccc3Cl)[nH]n12 | inconclusive: 29.1 µM [inhibitor, single point] | 
Cc1ccc(O)c(N=Nc2nccs2)c1 | active: 16.4 µM | 
O=C(NCCc1ccccc1)c1coc(=O)c(Br)c1 | inconclusive: 6.51 µM [inhibitor, single point] | 
O=C(CCCN1C(=O)/C(=C/c2ccccc2OC(F)F)SC1=S)Nc1cccnc1 | inconclusive: 6.51 µM [inhibitor, single point] | 
S=c1nc2ccccc2c2nc(-c3ccccc3)[nH]n12 |  | inactive: 18.3%
COc1cc(/C=C/c2ccc3cccc(O)c3n2)cc(Cl)c1OC | inconclusive: 29.1 µM [inhibitor, single point] | 
CN(C)c1nc(=Nc2cccc(Cl)c2)ss1 | inconclusive: 6.51 µM [inhibitor, single point] | 
N=C1S/C(=C\c2ccc(-c3cccc(Cl)c3)o2)C(=O)N1c1nccs1 | inconclusive: 6.51 µM [inhibitor, single point] | 
O=C(CSc1cccc[n+]1[O-])Nc1ccccc1Oc1ccccc1 | inconclusive: 25.9 µM [inhibitor, single point] | 
O=C(Nc1ccc(N2CCN(C(=O)c3ccc(Cl)cc3)CC2)cc1)c1ccc([N+](=O)[O-])o1 | active: 16.4 µM | 
Cc1nn(-c2ccccc2)c(C)c1/C=N/NC(=O)c1cc(-c2ccccc2)n[nH]1 | inconclusive: 13 µM [inhibitor, partial curve] | 
Cc1nc2c(-c3ccccc3)c[nH]n2c(=O)c1Cc1ccccc1 | inconclusive: 13 µM [inhibitor, partial curve] | 
Cc1ccccc1N1CCN(C2=NC(=O)/C(=C\c3cccs3)S2)CC1 | inconclusive: 25.9 µM [inhibitor, single point] | 
O=C(Oc1c(Cl)cc(Cl)c2cccnc12)c1ccco1 | inconclusive: 6.51 µM [inhibitor, single point] | 
CNCc1ccccc1Sc1ccc(O)c(O)c1 | inconclusive: 6.51 µM [inhibitor, single point] | 
COc1ccccc1-c1nc2c3ccccc3nc(=S)n2[nH]1 | inconclusive: 20.6 µM [inhibitor, single point] | 
Oc1cccc(/C=N/Nc2ccc(Cl)nn2)c1O | active: 20.6 µM | 
CN(CC(=O)O/N=C(\N)c1ccccn1)S(=O)(=O)c1cc(Cl)ccc1Cl |  | inactive: -0.248%
